Molecules are shown by their SMILES. Hit rate of the full screen: of about 52,000 compounds, about 4,300 (8.3%) were called active. No stated cut-off is given here; in the data, active means survival mostly below about 52% (no sharp cut-off); inactive means mostly above about 56%. This is one part of the list.

This test has as its system DeltatarO mutant. Put plainly: growth inhibition of S. aureus wild type versus tarO mutant, primary screen, teichoic acid synthesis inhibitors, RN4220, OD600 (AID 463173). To be noted: OD600, 18 h, active compounds read low, screened at 18.75 µg/mL (by protocol).
With `CCC(C)c1ccc(OCC(=O)Nc2ccc(-c3nc4ncccc4o3)cc2)cc1` (stereo not given), the survival is inactive: 44%.

Consider `CC(C)Oc1ccc(C(=O)N2CCCCC2CCN2CCCCC2)cc1` (stereo not given), for which the survival was inactive: 76%.

Turning to `CCOC(=O)c1ccc(NC(=O)N2C3CCC2CC(NC(=O)NC24CC5CC(CC(C5)C2)C4)C3)cc1` (stereo not given), the survival is inactive: 93%.

For `CCOC(=O)c1sc(N2C(=O)c3oc4ccc(F)cc4c(=O)c3C2c2ccc(O)cc2)nc1C` (stereo not given), the survival is inactive: 75%.

For `CCC1CN(C(=O)Nc2cc(Cl)ccc2C(=O)OC)c2ccccc2S1` (stereo not given), the survival was inactive: 129%.

In the case of `O=C1CCCS(=O)(=O)CC1`, the survival is inactive: 94%.

`Cc1ccc(C)c(Cn2c(=O)n(CCCC(=O)NCc3ccc4c(c3)OCO4)c(=O)c3sccc32)c1`: the survival was inactive: 74%.

`CN(C(=O)c1nn(C)c2c1CS(=O)(=O)c1ccccc1-2)c1cccc(Cl)c1`: the survival was inactive: 64%.

Regarding `COc1ccc(-n2nc(C(=O)Nc3cccc(Cl)c3)c3c4ccccc4n(C)c3c2=O)cc1Cl`, the survival was inactive: 108%.

As for `O=C(Nc1ccc(Br)cc1)c1cccc(S(=O)(=O)N2CCc3ccccc32)c1`, the survival is inactive: 134%.

With `CC(C)(C)c1ccc(-c2nnc(-c3ccccc3NC(=O)c3ccc(F)cc3F)o2)cc1`, the survival was inactive: 129%.

On to `Cc1ccc(/C=C/c2onc(C)c2S(=O)(=O)N2CCC(C(=O)N(CCC(C)C)Cc3ccco3)CC2)cc1`, for which the survival is inactive: 68%.

As to `COc1ccc(N2CCN(CCCNC(=O)c3ccc4nc(N5CCCCC5)sc4c3)CC2)cc1`, the survival was inactive: 78%.

For the compound `CCc1cccc(NC(=O)CCNS(=O)(=O)c2ccc3c(c2)CCN3C(C)=O)c1`, the survival is inactive: 85%.

As for `COc1ccccc1NC(=O)Cn1c(=O)n(-c2ccc(C)cc2)c(=O)c2c1cnn2C`, the survival is inactive: 83%.

For the compound `CCOc1ccc(NC(=O)c2oc3ccccc3c2NC(=O)c2cc3ccccc3o2)cc1`, the survival is inactive: 102%.

On to `Cc1ccc(CNC(=O)c2ccc(CS(=O)(=O)c3ccccc3C)o2)cc1`, for which the survival is inactive: 63%.

For the compound `Cc1ccc(N2C(=O)CSC23C(=O)N(CC(=O)Nc2ccccc2F)c2ccccc23)cc1C` (stereo not given), the survival is inactive: 90%.

As to `CN(C)c1ccc(CNC(=O)c2ccc3nc(CCc4ccccc4)oc3c2)cc1`, the survival was inactive: 93%.

On to `CCOC(=O)CSc1nc2cc3c(cc2c(=O)n1CCCCCC(=O)NCc1ccc(OC)cc1)OCO3`, for which the survival is inactive: 72%.

On to `CC(C)c1ccc(NC(=O)CSC2=Nc3ccccc3C3=NC(CC(=O)NC4CCCCC4)C(=O)N23)cc1` (stereo not given), for which the survival is inactive: 74%.

Take `COc1ccc2c(Sc3ccc(Cl)cc3)c(C(=O)N3CCCCC3)[nH]c2c1`: the survival is active: 40%.

On to `COc1ccc(-c2nc3ccccc3n3c(-c4ccccc4)c4c(=O)n(C)c(=O)n(C)c4c23)cc1`, for which the survival was inactive: 80%.

On to `C=CCNC1CCS(=O)(=O)C1` (stereo not given), for which the survival was inactive: 98%.

As to `CCCCCCC1CCC(C(=O)NC(C(=O)O)C(C)C)CC1` (stereo not given), the survival is inactive: 49%.

In the case of `O=C(CSc1oc(-c2ccco2)nc1S(=O)(=O)c1ccc(Cl)cc1)Nc1ccc(F)cc1`, the survival is inactive: 64%.

As for `Cc1nc(C)c(C(=O)N/N=C/c2ccc(O)cc2O)cc1C(=O)N/N=C/c1ccc(O)cc1O`, the survival is inactive: 80%.

As to `COc1ccc(N(CC(=O)NCCc2ccc(Cl)cc2)S(=O)(=O)c2c(C)nn(C)c2C)cc1`, the survival was inactive: 65%.

Regarding `CCOC(=O)C1CCN(C(=O)c2nn(-c3ccc(OC)cc3)c(=O)c3c2c2ccccc2n3C)CC1`, the survival was inactive: 74%.

As for `Cc1ccc(Sc2ccc(N3CCCC(C(=O)Nc4ccc(F)cc4F)C3)nn2)cc1` (stereo not given), the survival was inactive: 40%.

Take `Cc1ccc(-c2noc(-c3nnn(CC(=O)Nc4cc(Cl)ccc4C)c3N)n2)cc1`: the survival is inactive: 80%.

As to `CC1CCN(S(=O)(=O)c2cc(C(=O)N3CCN(c4ccccc4F)CC3)n(C)c2)CC1`, the survival is inactive: 70%.

As to `Cc1ccc(CSc2nc3cccnc3n2Cc2ccc(C(=O)NCCc3cccs3)cc2)cc1`, the survival was inactive: 135%.

For `Cc1nn(C)c2c1c(C(F)(F)F)cc(=O)n2CC(=O)N1CCC(C)CC1`, the survival is inactive: 98%.

As to `COc1ccc(CN2CCCN(CC(=O)Nc3ccc4c(c3)OCCO4)S2(=O)=O)cc1`, the survival is inactive: 74%.

Turning to `COc1ccc(C2CC(=O)N(CC(=O)Nc3cccc(C)c3C)c3ccccc3S2)cc1OC` (stereo not given), the survival was inactive: 97%.

Consider `CCOC(=O)Cn1c(=O)sc2ccccc21`, for which the survival was inactive: 94%.

Take `COc1ccccc1CNC(=O)CCCn1c(=O)c2ccccc2n(Cc2ccc(C)cc2)c1=O`: the survival is inactive: 132%.

With `CCc1cccc(NC(=O)C2CCN(S(=O)(=O)c3cccc(-c4noc(C)n4)c3)CC2)c1`, the survival is inactive: 73%.

As for `Cc1nc2c(c(C)nn2-c2ccccc2)c(C)c1CCC(=O)NCc1ccccc1`, the survival is inactive: 70%.

Turning to `CCN1CCN(c2cc(C)c3cc(NC(=O)c4ccc(OC)c(OC)c4)ccc3n2)CC1`, the survival was active: 44%.

Turning to `CCN1CCN(Cc2c(O)ccc3cc(-c4ccc(OC)cc4)c(=O)oc23)CC1`, the survival is inactive: 69%.

`COc1ccc(C2c3cccn3CCN2S(=O)(=O)c2ccc([N+](=O)[O-])cc2)cc1` (stereo not given): the survival is inactive: 69%.

As for `CC(=O)c1cccc(NC(=O)c2nc(-c3ccccc3)n(-c3ccccc3C)n2)c1`, the survival was inactive: 76%.

For the compound `COc1ccc(C)cc1Nc1nc(N)c2cc(OC)c(OC)cc2n1`, the survival was inactive: 69%.

`Cc1ccc(-c2n[nH]c(=S)c3ccccc23)cc1S(=O)(=O)N1CCN(C)CC1`: the survival is inactive: 95%.

For `CCC1CN(C(=O)C2CCN(S(=O)(=O)c3c(C)noc3/C=C/c3ccccc3F)CC2)c2cc(C)ccc2O1` (stereo not given), the survival is inactive: 70%.

In the case of `CCCCn1c(SCC(=O)NCc2ccc(C)cc2)nc2c(sc3ccccc32)c1=O`, the survival is inactive: 89%.

For `COCCN1CCN(Cc2ccc(C(=O)NC(C)C)cc2)C(=O)C1=O`, the survival is inactive: 86%.

In the case of `COc1ccc(NC(=O)c2oc3ccccc3c2NC(=O)Cc2cccs2)c(OC)c1`, the survival was inactive: 93%.

Take `COc1ccc(CNC(=O)C(C)n2c(=O)cc(C)c3c(C)nn(-c4ccccc4)c32)cc1` (stereo not given): the survival was inactive: 75%.

In the case of `COC(=O)c1cc2oc3ccccc3c2n1CC(=O)Nc1ccc(C)cc1C`, the survival is inactive: 68%.

Take `CCOC(=O)Cn1c(=O)oc2cc(S(=O)(=O)N3CCN(c4cc(C)ccc4C)CC3)ccc21`: the survival was inactive: 68%.

On to `CN(C)CCNC(=O)c1ccc2c(c1)N(Cc1c(F)cccc1Cl)C(=O)c1ccccc1S2`, for which the survival was inactive: 118%.

`Cc1ccn2cc(-c3ccc(C)c(NS(=O)(=O)c4ccc(Cl)cc4)c3)nc2c1`: the survival was active: 43%.

Regarding `Cc1ccc(S(=O)(=O)c2nc(-c3cccc(Cl)c3)oc2NCc2ccccc2)cc1`, the survival is inactive: 168%.

Take `Cc1cc(C)c(NC(=O)Cn2c(=O)n(Cc3ccc(C(=O)NCc4ccco4)cc3)c(=O)c3sccc32)c(C)c1`: the survival is inactive: 173%.

Consider `Cc1c(Cl)ccc2sc(N3CCN(C(=O)CS(=O)(=O)c4ccccc4)CC3)nc12`, for which the survival is inactive: 106%.

Regarding `CCOc1ccc(OCC)c(NS(=O)(=O)c2ccc3c(c2)CCN3C(=O)C2CCC2)c1`, the survival is inactive: 79%.

With `O=C(Cc1c(C(=O)O)[nH]c2ccccc12)Nc1cccc(C(F)(F)F)c1`, the survival was inactive: 56%.

Regarding `CCCN1CCN(CCCNC(=O)c2c(C)nn(-c3ccc(F)cc3)c2-n2cccc2)CC1`, the survival is inactive: 88%.

For the compound `CN1C(=O)/C(=C/c2ccco2)SC1=Nc1cccc(C(=O)O)c1`, the survival was inactive: 69%.

Consider `CC(C)(C)OC(=O)N1CCC2(CC1)C(C#N)=C(N)OC1=C2C(=O)CCC1`, for which the survival is inactive: 80%.

For the compound `Cc1ccc(OCC(=O)Nc2ccc(-c3nc4ccccc4o3)cc2)c(C)c1`, the survival was inactive: 63%.

Take `CC(C)c1ccc(-c2nnn(CC(=O)OC3CCCCC3)n2)cc1`: the survival was inactive: 87%.

On to `COCCCNC(=O)c1ccc2nc(CCc3ccccc3)oc2c1`, for which the survival is inactive: 81%.

Consider `CCOC(=O)c1c(NC(=O)c2ccc(C)c(C)c2)sc2c1CCCCC2`, for which the survival is active: 2%.

Turning to `Cn1cnc(S(=O)(=O)N2CCCC(C(=O)Nc3ccc(OC(F)(F)F)cc3)C2)c1` (stereo not given), the survival is active: 25%.

On to `CCc1ccc(C(=O)NC2=NC(c3ccccc3F)CC(=O)N2)cc1` (stereo not given), for which the survival is inactive: 177%.

Take `CCC(=O)N1CCc2cc(S(=O)(=O)NC(C(=O)Nc3cc(OC)cc(OC)c3)C(C)C)ccc21` (stereo not given): the survival is inactive: 86%.

As for `N#C/C(=C/c1ccc(-c2ccc(Br)cc2)o1)C(=O)NC1CCCCC1`, the survival was inactive: 71%.

As for `CCc1ccc(N2C(=O)CSC23C(=O)N(Cc2cccc(F)c2)c2ccccc23)cc1` (stereo not given), the survival is inactive: 124%.

With `CCOC(=O)c1cccc(NC(=O)c2cc(-c3ccc(Cl)s3)nc3ccccc23)c1`, the survival is inactive: 125%.

Consider `CN=CC1=C(O)C(C(=O)OC)C(C)(C)CC1=O` (stereo not given), for which the survival is inactive: 74%.

Regarding `Cc1ccc(C(=O)N2C(C)CCCC2C)c(Cl)c1` (stereo not given), the survival is inactive: 70%.

In the case of `O=C(NCCc1ccccc1)c1ccc(CSc2nc3ccncc3n2Cc2ccccc2)cc1`, the survival was inactive: 73%.

`CCN(CC)CCCNC(=O)c1cn(C)c2ccc(S(=O)(=O)N3CCOCC3)cc2c1=O`: the survival was inactive: 85%.

For the compound `COc1ccc(NC(=O)Cn2ncc3c([nH]c4ccccc43)c2=O)cc1Cl`, the survival was inactive: 94%.

For the compound `Cc1ccc(NC(=O)CSc2nc(C)cc(C)c2C(=O)Nc2cccc(C)c2)cc1`, the survival was inactive: 49%.

For the compound `COc1cc(OC)cc(C(=O)Nc2ccc(S(=O)(=O)Nc3onc(C)c3C)cc2)c1`, the survival is inactive: 75%.

As to `Cc1ccc(-n2c3c(cc(-c4nc(-c5ccc(Cl)cc5)cs4)c2=O)C(=O)CC(C)(C)C3)cc1`, the survival was inactive: 79%.

Consider `CCOC(=O)c1c(C)[nH]c(CCC(=O)Nc2cc(C)cc(C)c2)c1C`, for which the survival is inactive: 113%.

`O=C(Cn1nc(C(F)(F)F)c2c1CCCC2)Nc1ccc(Cl)cc1`: the survival was inactive: 54%.

For the compound `COc1cccc(CNC(=O)CN2C(=O)CCn3nc(-c4cn(C)c5ccccc45)cc32)c1OC`, the survival is inactive: 76%.

Consider `COc1ccc(N2CC(C(=O)NC3=NCCS3)CC2=O)cc1` (stereo not given), for which the survival was inactive: 100%.

Source of the values: PubChem BioAssay AID463173 (ICCB-Longwood Screening Facility, Harvard Medical School, 2010).
